Source: the supplement of paper PMC10986608
The list shows a part of the results. Single values are uncertain, as repeats are few or missing.

The compounds below were run on Candida albicans DPL-15 (assay: growth (OD600) after compound treatment (apparently relative to screen median) (relative growth (fraction; screen median 1.02)); DPL-15 is a caspofungin-resistant clinical isolate; higher = more fungal growth (less antifungal activity)). Details: 25 µM; RPMI 1640; 48 h; 30 °C.

Row | SMILES | growth
1 | CC(=O)c1cc(Br)c(O)cc1O | 1.1
2 | C[C@]12Cc3ccccc3[C@H]1CC1=N[C@@H](C3CCCCC3)O[C@@]13C[C@@H]2C(=O)N3C1CCN(Cc2ccccc2)CC1 | 0.838
3 | COc1ccc([C@@]23Oc4cc(OC)cc(OC)c4[C@]2(O)C(=O)[C@H](C(=O)Nc2ccccn2)[C@H]3c2ccccc2)cc1 | 0.955
4 | COc1ccc(N2C(=O)c3[nH]nc(CC(C)C)c3C2c2ccc(C)cc2)cc1 (centres undefined) | 1.01
5 | CC1=C[C@@H](COc2ccc(Br)cc2)O[C@@]2(C1)C(=O)Nc1ccccc12 | 0.955
6 | CC#CCCN1C(=O)N(C(C)=O)C(c2ccccc2)C(C(=O)OC)=C1C (centres undefined) | 1.01
7 | C=C(C)CC[C@@]12CCC(C)(C)[C@@](C(=O)c3ccccc3)(C(=O)C=C1OC)C2=O | 0.97
8 | CCOC(=O)C1C=CC=C(OC)C=C1 (centres undefined) | 1.21
9 | CC(C)CC1=NCCN(C)C2=C1C(c1ccccc1)N(c1ccccc1)C2=O (centres undefined) | 0.977
10 | C#CCN1C(=O)NC(c2ccccc2)C(C(=O)OC)=C1C (centres undefined) | 1.01
11 | CC(=O)C1=C2C=CCCN2C(=O)NC1c1ccc(C(F)(F)F)cc1 (centres undefined) | 0.973
12 | COc1ccc(-c2c(O)c(=O)c3c(F)cccc3n2C)cc1 | 0.731
13 | CC(C)CC1=NCCN(C)C2=C1C(c1cccc(C(F)(F)F)c1)N(Cc1ccccc1)C2=O (centres undefined) | 0.99
14 | C=CC[C@]12C[C@@]3(O[C@H](C4CCCCC4)N=C3C[C@H](c3ccc(OC)cc3)[C@H]1C)N(Cc1cccnc1)C2=O | 0.812
15 | COC(=O)C1=C(C)N(CCc2cccs2)C(NCC2CCCCC2)=NC1c1ccccc1 (centres undefined) | 1.17
16 | COc1cccc2c1C(=O)C[C@](COC(C)=O)(C1C=CC(=O)O1)O2 (some centres undefined) | 1.28
17 | Cc1ccc2c(=O)c3cccc(CC(=O)[O-])c3oc2c1C | 1.13
18 | CCN1C(NCCOC)=NC(c2ccc(Cl)cc2)C(C(=O)OC)=C1C (centres undefined) | 1.14
19 | COc1cc2c(c(OC)c1OC)C1(CCCCC1)CC2NC(=O)C(F)(F)F (centres undefined) | 1.17
20 | COC(=O)[C@H]1[C@H](C(=O)OC)[C@@H](c2ccc(O)c(OC)c2)[C@@H]1c1ccc(O)c(OC)c1 | 1.05
21 | COC(=O)c1c(C)c(C)c(O)c(C)c1O | 1.24

Row | SMILES | growth
22 | C=CC[C@H]1C[C@]23C[C@H](CC=C)C(C)(C)[C@](CC=C)(C(=O)C(C(=O)c4ccccc4)=C2OC1(C)C)C3=O | 1
23 | COC(=O)COc1ccccc1[N+](=O)[O-] | 1.11
24 | C=CCCCN1C(=O)NC(c2ccccc2)C(C(=O)OC)=C1C (centres undefined) | 1.05
25 | COC(=O)C1=C(C)[C@]2(C)C[C@H]3[C@@]4(C)CC[C@H](O)C(C)(C)[C@@H]4CC[C@@]3(C)[C@](C)(C1=O)C2=O | 0.865
26 | COC(=O)C(=Cc1cc(Br)c(OC)c(Br)c1)C(=O)OC | 0.708
27 | COc1cc(O)c(C(=O)[C@@H]2CC=C(CCC=C(C)C)C[C@H]2c2ccccc2)c(OC)c1 | 0.954
28 | COc1cccc(C(=O)O)c1Nc1ccccc1C(=O)O | 1.1
29 | CC(C)(C)c1ccc(C#C[C@@H]2C=C[C@@H](O)[C@@H](CO)O2)cc1 | 1.01
30 | COC(=O)C/C=C/[C@@H](C)[C@H](OC)c1ccccc1Br | 0.997
31 | COc1ccc([C@@]23Oc4cc(OC)cc(OC)c4[C@]2(O)c2nc(C4CCCCC4)[nH]c(=O)c2[C@H]3c2ccccc2)cc1 | 1.12
32 | COc1ccc(N2C(=O)c3[nH]nc(CC(C)C)c3C2c2ccncc2Cl)cc1 (centres undefined) | 1.09
33 | COc1ccc2oc3ccccc3c(=O)c2c1 | 1.09
34 | COC(=O)C1=C(C)N(Cc2cccc(C(F)(F)F)c2)C(NCCN2CCOCC2)=NC1c1ccc(Cl)cc1 (centres undefined) | 0.881
35 | CC1(C)/C=C\C=C\c2cccc(n2)C(=O)NCC2(CCCCC2)CC(=O)NC1 | 1.14
36 | COc1ccc(CCCc2ccccc2)cn1 | 1.05
37 | CC(C)CCOS(=O)(=O)Nc1ccc(C(F)(F)F)cc1 | 0.959
38 | CC(C)CC1=NCC(C)(C)NC2=C1C(c1ccccc1)N(c1ccccc1)C2=O (centres undefined) | 1.02
39 | COC(=O)c1c(O)c(C=O)c(O)c(C=O)c1O | 0.955
40 | C=CC[C@@H]1C=C(C(=O)OC)N(C(=O)C(F)(F)F)[C@@H](c2ccccc2Br)[C@@H]1C | 1.07
41 | CCCCc1n[nH]c2c1C(c1ccc(F)cc1)N(c1ccc(OC)cc1)C2=O (centres undefined) | 1.35
42 | COC(=O)Cc1nnn2c1CC(OC)c1cc(Br)ccc1-2 (centres undefined) | 1.03

Row | SMILES | growth
43 | O=C(/C=C/c1ccccc1)Nc1ccc2c(=O)c(Cc3cccs3)coc2c1 | 1.13
44 | C#CCOc1ccccc1CN | 1.03
45 | COC(=O)C1=C(C)N(Cc2ccc(C(F)(F)F)cc2)C(NCC(C)C)=NC1c1ccccc1 (centres undefined) | 0.924
46 | Cc1ccc(C2NC(=O)C3=C2C(C(C)C)=NCCN3)cc1 (centres undefined) | 1.11
47 | CC(C)C[C@H]1NC(=O)C[C@H]2C[C@H](C)[C@H](c3ccccc3)N2C1=O | 0.982
48 | C#CCOC(CNC(=O)OC(C)(C)C)CNC(=O)OC(C)(C)C | 1.02
49 | CCOC(=O)COc1ccc(CC=C(C)C)c2c(=O)c3c(OC)cc(OC)cc3oc12 | 1.02
50 | CN(Cc1ccccc1)C(=O)c1c(O)cc(O)cc1CC(=O)C1CCCCC1 | 1.01
51 | CC(C)C1=NCCN(C)C2=C1C(c1ccc(Br)cc1)N(Cc1ccccc1)C2=O (centres undefined) | 0.951
52 | Cc1cc(C)cc(-n2nc(CC(C)C)c3c2C(=O)NC3c2ccc(F)cc2)c1 (centres undefined) | 1.07
53 | C=CCN1C(=O)C2=C(C(C)=NCC(C)(C)N2)C1c1ccccc1 (centres undefined) | 1.14
54 | C=CCN1C(=O)C2=C(C(c3ccccc3)=NCC(C)(C)N2)C1c1cccc(C(F)(F)F)c1 (centres undefined) | 1.05
55 | COC(=O)[C@@H](Cc1ccccc1)N[C@H](/C=C/c1ccccc1)[C@@H](O)Cc1ccccc1 | 1.09
56 | CO[C@@H]1[C@H](O)CC[C@]2(O)CN(CCCN3CCCC3=O)[C@](C)([C@H](O)CC=C(C)C)[C@@H]12 | 1.04
57 | O=C(c1c(O)cc(O)cc1Nc1ccnn1Cc1ccoc1)N1Cc2cn[nH]c2C1 | 0.953
58 | CCC(=O)O[C@@H]1CCC(OC)=C2C(=O)c3c(ccc(I)c3O)O[C@]21C(=O)OC | 0.984
59 | COc1ccc([C@@H]2[C@@H](C(=O)NCc3ccccc3)[C@@H](C(=O)NCc3ccccc3)[C@@H]2c2ccc(OC)c(OC)c2)cc1OC | 0.971
60 | CCC1(Cc2occc(=O)c2OS(C)(=O)=O)C(c2ccccc2)=Nc2ccccc21 (centres undefined) | 1.36
61 | c1csc([C@H]2c3cc4c(cc3O[C@H]3c5ccccc5C[C@@H]23)OCO4)c1 | 1.13
62 | O=C(Cc1ccc([N+](=O)[O-])cc1)N1CCc2ccccc2C1 | 1.03
63 | O=C(/C=C/c1ccccc1OC/C=C/c1ccccc1)c1ccccc1O | 1.08

Row | SMILES | growth
64 | C=CCN1C(=O)C2=C(C(C(C)C)=NCC(C)(C)N2)C1c1cccc(C(F)(F)F)c1 (centres undefined) | 1.04
65 | COc1ccc(-c2ccc(O)c(C(C)=O)c2)cc1 | 1.02
66 | COCOc1cc(OC)cc(O)c1C(=O)/C=C/c1cccs1 | 1.22
67 | COc1ccccc1Cn1nc(CC(C)C)c2c1C(=O)NC2c1ccccc1 (centres undefined) | 1.06
68 | CC(=O)OC[C@H]1O[C@H](C#Cc2ccc(C)cc2)C=C[C@H]1OC(C)=O | 0.938
69 | COC(=O)C1=C[C@H]([C@H](C)[C@@H](OC)c2ccccc2Br)[C@H]2OCC[C@@H]12 | 1.06
70 | COC(=O)c1cc2c(c3c4cc(OC)ccc4n(S(=O)(=O)c4ccc(OC)cc4)c13)C(=O)N(Cc1ccc(C(F)(F)F)cc1)C2 | 1.1
71 | Nc1ccc(CCN2Cc3ccccc3C2)cc1 | 1.06
72 | CO[C@@H]1[C@H](O)CC[C@]2(O)CN(c3cccc(F)c3)[C@@H](CC=C(C)C)[C@](C)(O)[C@@H]12 | 1.07
73 | CC(C)=CCc1cc(OCC(=O)NCC(=O)NCc2ccccc2)cc2oc3cccc(O)c3c(=O)c12 | 1.07
74 | CC1=CC2=C[C@@H](O)C[C@@H](C)[C@]2(O)[C@@H]2CCC3(OCCO3)[C@@]2(O[Si](C)(C)C)C1 | 1.25
75 | COCCN1C(=S)NC(c2ccc(OC)cc2)C(C(=O)OC)=C1C (centres undefined) | 1.19
76 | CNc1cc(OC)cc(OC)c1C(=O)OCC(=O)c1cccc(N2CCOCC2)c1 | 1.08
77 | COCC1=Cc2cc3c(cc2C(C(C(=O)OC)C(=O)OC)N1C(=O)OC)OCO3 (centres undefined) | 1.05
78 | COC[C@H]1O[C@H](c2ccccc2)C=C[C@@H]1OCC#Cc1cc(Cl)ccc1N | 0.874
79 | C=CC[C@]12C[C@@]3(O[C@H](C(CC)CC)N=C3C[C@H](c3ccc(OC)cc3)[C@H]1C)N(Cc1cccs1)C2=O | 0.912
80 | COc1ccc(Cn2nc(-c3ccoc3)cc2Nc2cc(O)cc(O)c2C(=O)N2Cc3cccnc3C2)cc1 | 1.1
81 | COC(=O)C1=C(C(=O)OC)[C@@H]2Nc3ccccc3[C@@]23C[C@@H](C(=O)OC)N(C(C)=O)C3=N1 | 0.983
82 | COc1ccc([C@@]23Oc4cc(OC)cc(OC)c4[C@]2(O)C=C(C(=O)c2ccco2)[C@H]3c2ccccc2)cc1 | 1.06
83 | COc1ccc(CCn2ccc([N+](=O)[O-])n2)cc1 | 0.925
84 | C[C@H]1NC(=O)C[C@H]2C[C@H](C)[C@H](c3ccccc3)N2C1=O | 1.98
